Measurements published in PMC4336329 (PLoS ONE, 2015).
Among all 310,000 compounds or so, about 2,200 (0.71%) showed an effect of 50% or more. The effect is printed as a negative number. This is one part of the list.

target: human ether-à-go-go-related gene (hERG) potassium channel (human, UniProt Q12809); assay: primary screen, population patch clamp on CHO cells stably expressing hERG
Sequence (Q12809 whole entry, looked up): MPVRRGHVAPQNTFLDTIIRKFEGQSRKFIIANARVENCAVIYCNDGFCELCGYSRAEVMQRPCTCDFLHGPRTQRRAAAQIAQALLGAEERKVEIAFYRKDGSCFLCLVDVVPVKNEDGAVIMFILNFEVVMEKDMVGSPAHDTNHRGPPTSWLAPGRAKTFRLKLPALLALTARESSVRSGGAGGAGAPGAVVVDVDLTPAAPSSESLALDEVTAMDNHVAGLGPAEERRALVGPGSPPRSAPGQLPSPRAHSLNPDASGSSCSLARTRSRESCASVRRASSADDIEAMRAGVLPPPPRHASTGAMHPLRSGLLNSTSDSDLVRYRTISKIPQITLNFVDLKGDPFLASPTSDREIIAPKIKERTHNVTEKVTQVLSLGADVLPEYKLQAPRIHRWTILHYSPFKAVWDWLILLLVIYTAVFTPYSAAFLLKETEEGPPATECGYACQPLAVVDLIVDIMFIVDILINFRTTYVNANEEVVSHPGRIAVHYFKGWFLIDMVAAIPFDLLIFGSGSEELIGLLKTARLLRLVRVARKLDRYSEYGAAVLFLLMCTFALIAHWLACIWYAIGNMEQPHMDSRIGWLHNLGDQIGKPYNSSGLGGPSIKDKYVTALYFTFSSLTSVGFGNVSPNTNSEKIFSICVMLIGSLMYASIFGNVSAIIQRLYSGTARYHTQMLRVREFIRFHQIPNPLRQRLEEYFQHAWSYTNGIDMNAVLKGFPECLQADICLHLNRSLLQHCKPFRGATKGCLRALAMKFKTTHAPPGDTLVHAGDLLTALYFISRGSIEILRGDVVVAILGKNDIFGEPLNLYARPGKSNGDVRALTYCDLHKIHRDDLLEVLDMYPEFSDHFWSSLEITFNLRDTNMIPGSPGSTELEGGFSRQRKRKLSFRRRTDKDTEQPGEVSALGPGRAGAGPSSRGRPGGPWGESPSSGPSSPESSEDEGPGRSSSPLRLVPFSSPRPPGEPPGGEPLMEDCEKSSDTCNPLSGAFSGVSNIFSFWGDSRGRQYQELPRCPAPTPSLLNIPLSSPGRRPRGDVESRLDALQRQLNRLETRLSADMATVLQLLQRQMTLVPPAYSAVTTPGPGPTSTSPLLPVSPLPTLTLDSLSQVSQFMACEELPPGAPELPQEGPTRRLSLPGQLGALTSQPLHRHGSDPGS

Row | SMILES | hERG current change (%, negative = inhibition) at 1uM [%]
1 | COc1ccccc1N1CCN(/N=C/c2c(C)nn(-c3ccccc3)c2C)CC1 | -7.38
2 | Cc1nc(SCCCSc2n[nH]c(C)n2)n[nH]1 | 14.2
3 | Cc1n[nH]c(C)c1CCOc1ccc(C(C)C)cc1.Cl | 4.9
4 | ON=Cc1cccn1-c1ccccc1 | 11.5
5 | CCCCC(=O)Nc1ccc(S(=O)(=O)Nc2nccc(C)n2)cc1 | 1.6
6 | COC(=O)c1ccc(C(=O)Nc2ccc(F)cc2)cc1 | 12.4
7 | CCCn1c(N)c(Sc2ccc(C)cc2)c(=O)n(CCC)c1=O | 8.23
8 | NC(=O)c1nsc(C(=O)N(CC(=O)NCc2ccc3c(c2)OCO3)C2CCCC2)c1N | 5.92
9 | CCc1ccc2nc(SCC(=O)Nc3ccccc3N3CCOCC3)c(C#N)cc2c1 | 6.75
10 | COc1ccc(N2CCN(c3cc(C)nc4ccc(OC)cc34)CC2)cc1 | -31
11 | CN(C)C(=O)c1c(NC(=O)c2ccco2)sc2c1CCCCC2 | 10
12 | CCCc1cc(=O)[nH]c(SCC(=O)NN(c2ccccc2)c2ccccc2)n1 | 7.17
13 | N#CC(c1ccccc1)c1cnccn1 (centres unmarked) | 4.76
14 | Cc1ccccc1OCCn1ccnc1 | 11.2
15 | COc1ccc2oc(C(=O)C3CC3)c(N)c2c1 | 1.2
16 | CCN(CC)CCn1c(=N)n(CC(O)COc2cccc(C)c2)c2ccccc21.Cl (centres unmarked) | -22.1
17 | COc1cc(NC(C)=O)ccc1NC(=O)c1cc2ccccc2o1 | 17.2
18 | COC(=O)c1c(C)oc2ccc(N(C(=O)c3ccncc3)S(=O)(=O)c3ccc4ccccc4c3)cc12 | 2.97
19 | NC(=O)C1CCN(C2=C(Cl)C(=O)c3ccccc3C2=O)CC1 | 14
20 | CCN(CC)S(=O)(=O)c1ccc(NN=C2CCN(C)CC2)c([N+](=O)[O-])c1 | 6.43
21 | COc1ccc(N=Cc2c(O)n(CC3CCCO3)c(=O)[nH]c2=O)cc1 (centres unmarked) | 8.42
22 | CCOc1ccccc1CNC(CC)CO.Cl (centres unmarked) | 13
23 | Cc1ccc(N/C=C2\CCCCC2=O)nc1 | 7.7
24 | CCC(=O)Nc1cccc(-c2nnc(SCC(=O)NCc3ccco3)n2C)c1 | 6.52
25 | Cc1ccn2nc(S(=O)(=O)Nc3c(F)cccc3F)nc2n1 | 11.7
26 | Cc1nc2ccccn2c1/C(O)=C1\C(=O)C(=O)N(CCCN(C)C)C1c1ccc(F)cc1 (centres unmarked) | 11.6
